Experiments:
[1] = test system: c-Met-negative Jurkat NucLight Red cells; test: Bystander cytotoxicity, Jurkat NucLight Red co-cultured 1:1 with MKN45; type: cell-based, human; details: 1 μg/mL, 6 days, FIG. 4
Procedure: Bystander cytotoxicity was determined in c-Met-negative Jurkat NucLight Red cells 1:1 co-cultured with c-Met positive MKN45 cells. 5000 cells/well of each cell type (1:1 ratio) was added in their own culture medium to 96-well plates pre-coated with Poly-L-Omithine (0.1 mg/mL, Sigma). After an overnight incubation at 37° C., 5% CO2, 10 μL of 1 μg/mL ADC3b or non-binding control ADC (rituximab-vc-seco-DUBA) was added. Live cell analysis of the proliferation of co-cultured c-Met negative Jurkat NucLight Red cells was assessed by imaging the plates in the IncuCyte S3 instrument, scanning phase and fluorescence with a 10× objective, 4 images per well, every 6 hours during 6 days.

[2] = test system: LXFL1176 large cell carcinoma xenograft; test: Dose-response study, patient-derived lung cancer xenograft LXFL1176; type: in vivo, mice; details: LXFL1176, single injection 0.3, 1, 3 or 10 mg/kg, FIG. 8B
Procedure: (§1) Dose-response studies were performed two patient-derived xenograft models: 1) LXFL1176, a large cell carcinoma derived a lymph node metastasis, and 2) HNXF1905, a primary squamous cell carcinoma from the supraorbital area. The tumor explants were grafted in B6-Ces1ctm1.1Loc.CB17 Prkdc^scid mice using the same protocol as described hereinabove. The MET gene is not amplified in either tumor; immunohistochemical staining confirmed high c-Met expression on the cell surface in the LXFL1176 model, and moderate c-Met expression in the HNXF1905 model.
(§2) The mice were dosed on the day of randomization or on the following day with a single injection of 0.3, 1, 3 or 10 mg/kg ADC3b. A vehicle and non-binding isotype control ADC were included. […] The efficacy of ADC3b in head and neck cancer PDX model HNXF1905 is shown in FIG. 8A, the efficacy in lung cancer PDX model LXFL1176 in FIG. 8B.

[3] = Pharmacokinetics in head and neck HNXF1905 tumor bearing Ces1c KO mice; type: in vivo
Procedure: (§3) Pharmacokinetic/pharmacodynamic studies were performed with anti-c-Met ADC ADC3b in tumor-bearing CES1c KO SCID mice. These mice lack exon 5 of the Ces1c gene leading to the abolishment of the function of the enzyme. Further pharmacokinetic data were obtained from a toxicology study with ADC3b in cynomolgus monkey.
(§4) Mice were dosed with ADC3b (0.3, 1, 3 or 10 mg/kg, intravenous (i.v.) bolus injection) and plasma was collected at 1, 48, 168, 336, 504 hours post dosing. Monkeys were dosed with ADC3b (5, 15 or 25 mg/kg, i.v. infusion) and plasma was collected at 1, 6, 24, 48, 96, 192, 360, 504 hours. An LC-MS/MS based assay was used to quantify total antibody, and ligand binding assays were used to quantify conjugated antibody. The conjugated antibody assay captures ADC species that contain at least one linker drug.

[4] = Pharmacokinetics in cynomolgus monkey, single dose; type: in vivo
Procedure: as §3, §4

[5] = test system: c-Met negative A2780; test: In vitro cytotoxicity (PrestoBlue, CyQUANT), A2780; type: cell-based, human
Procedure: (§5) In a separate experiment, in vitro cytotoxicity of ADC3b was determined in human tumor cell lines with varying levels of c-Met expression. Cells in complete growth medium were plated in 384-well plates (45 μL/well) and incubated at 37° C., 5% CO2 at the following cell densities: 650 MKN-45, 600 EBC-1, 250 PC-3, 400 KP-4, 2000 NCI-H441, 2500 Hep-G2, 4000 A2780, 1500 HCC-1954 and 600 Jurkat NucLight Red cells per well. After an overnight incubation 5 μL of ADC3b was added. Serial dilutions of the ADC were made in culture medium. Cell viability was assessed after 6 days using the fluorescence-based PrestoBlue® Cell Viability Reagent (Invitrogen, Thermo Fisher scientific, USA) and fluorescence-based CyQUANT® Cell Proliferation Assay (Invitrogen, Thermo Fisher scientific, USA) according to the manufacturer's instructions. Percentage survival was calculated by dividing the measured fluorescence for each ADC concentration with the average mean of untreated cells (only growth medium) multiplied with 100.

[6] = test system: Jurkat NucLight Red cells; test: In vitro cytotoxicity (PrestoBlue, CyQUANT), Jurkat NucLight Red; type: cell-based, human; details: 0 c-Met antigen binding sites per cell
Procedure: as §5

[7] = test system: HNXF1905 squamous cell carcinoma xenograft; test: Dose-response study, patient-derived head and neck cancer xenograft HNXF1905; type: in vivo, mice; details: HNXF1905, single injection 0.3, 1, 3 or 10 mg/kg, FIG. 8A
Procedure: as §1, §2

[8] = Conjugated antibody, 0.3 mg/kg i.v.
[9] = Conjugated antibody, 1 mg/kg i.v.
[10] = Conjugated antibody, 3 mg/kg i.v.
[11] = Conjugated antibody, 10 mg/kg i.v.
[12] = Conjugated antibody, 5 mg/kg, female
[13] = Conjugated antibody, 5 mg/kg, male
[14] = Conjugated antibody, 15 mg/kg, female
[15] = Conjugated antibody, 15 mg/kg, male
[16] = Conjugated antibody, 25 mg/kg, female
[17] = Conjugated antibody, 25 mg/kg, male
[18] = Total antibody, 5 mg/kg, female
[19] = Total antibody, 15 mg/kg, female
[20] = Total antibody, 25 mg/kg, female

B1: ADC3b: mAb3b site-specifically conjugated (HC 41C) to vc-seco-DUBA, DAR 1.9 (conjugate)
heavy: QVQLVQSGAEVKKPGASVKVSCKASGYTFTDYYLNWVRQACGQGLEWMGLIFPGNDKTEYSEKFKGRVTLTTDTSISTAYMELSSLTSDDTALYYCSGGDYGGFVYWGQGTLVTVSS[sequence of human IgG1 constant region not given]
light: DIQMTQSPSSLSASVGDRVTISCGASENIYGALNWYQQQPGKAPKVLIFGATNLADGVPSRFSGSGSGTDFTLTISSLQPEDFATYYCQNVLSSPLTFGQGTKLEIKRTVAAPSVFIFPPSDEQLKSGTASVVCLLNNFYPREAKVQWKVDNALQSGNSQESVTEQDSKDSTYSLSSTLTLSKADYEKHKVYACEVTHQGLSSPVTKSFNRGEC
Question: Which bystander killing effect [1] does the source give for B1 here?
Answer: capable of inducing a bystander killing effect

Question: And the anti-tumor activity [2]?
Answer: dose-dependent anti-tumor activity

Question: What about the AUClast [3, 8] of the same molecule?
Answer: 896 µg·h/mL

Question: And the “Approximate t1/2” value [3, 8]?
Answer: 181 h

Question: What about the Cmax [3, 8] of the same molecule?
Answer: 4850 ng/mL

Question: What about the AUClast [3, 9] of the same molecule?
Answer: 2330 µg·h/mL

Question: And the “Approximate t1/2” value [3, 9]?
Answer: 221 h

Question: What about the Cmax [3, 9] of the same molecule?
Answer: 11700 ng/mL

Question: And the AUClast [3, 10]?
Answer: 7500 µg·h/mL

Question: And the Cmax [3, 10]?
Answer: 46700 ng/mL

Question: What about the AUClast [3, 11] of the same molecule?
Answer: 32300 µg·h/mL

Question: What about the Cmax [3, 11] of the same molecule?
Answer: 130000 ng/mL

Question: What about the AUClast ([3]; Total antibody, 0.3 mg/kg i.v.) of the same molecule?
Answer: 1120 µg·h/mL

Question: What about the “Approximate t1/2” value ([3]; Total antibody, 0.3 mg/kg i.v.) of the same molecule?
Answer: 207 h

Question: What about the Cmax ([3]; Total antibody, 0.3 mg/kg i.v.) of the same molecule?
Answer: 3860 ng/mL

Question: What about the AUClast ([3]; Total antibody, 1 mg/kg i.v.) of the same molecule?
Answer: 3250 µg·h/mL

Question: And the Cmax ([3]; Total antibody, 1 mg/kg i.v.)?
Answer: 11400 ng/mL

Question: And the AUClast ([3]; Total antibody, 3 mg/kg i.v.)?
Answer: 11200 µg·h/mL

Question: And the Cmax ([3]; Total antibody, 3 mg/kg i.v.)?
Answer: 73200 ng/mL

Question: What about the AUClast ([3]; Total antibody, 10 mg/kg i.v.) of the same molecule?
Answer: 41500 µg·h/mL

Question: And the Cmax ([3]; Total antibody, 10 mg/kg i.v.)?
Answer: 181000 ng/mL

Question: And the AUClast [4, 12]?
Answer: 13700 (F) hrs*μg/mL

Question: What about the “Approximate t1/2” value [4, 12] of the same molecule?
Answer: 73.6 (F) hrs

Question: And the Cmax [4, 12]?
Answer: 155 (F) μg/mL

Question: And the AUClast [4, 13]?
Answer: 13000 (M)/ hrs*μg/mL

Question: What about the “Approximate t1/2” value [4, 13] of the same molecule?
Answer: 73.7 M/h

Question: And the Cmax [4, 13]?
Answer: 147 (M)/ μg/mL

Question: And the AUClast [4, 14]?
Answer: 39200 (F) hrs*μg/mL

Question: What about the “Approximate t1/2” value [4, 14] of the same molecule?
Answer: 125 (F) hrs

Question: What about the Cmax [4, 14] of the same molecule?
Answer: 390 (F) μg/mL

Question: And the AUClast [4, 15]?
Answer: 43100 (M)/ hrs*μg/mL

Question: What about the “Approximate t1/2” value [4, 15] of the same molecule?
Answer: 143 M/h

Question: And the Cmax [4, 15]?
Answer: 371 (M)/ μg/mL

Question: What about the AUClast [4, 16] of the same molecule?
Answer: 78900 (F) hrs*μg/mL

Question: And the “Approximate t1/2” value [4, 16]?
Answer: 172 (F) hrs

Question: And the Cmax [4, 16]?
Answer: 659 (F) μg/mL

Question: And the AUClast [4, 17]?
Answer: 77300 (M)/ hrs*μg/mL

Question: What about the “Approximate t1/2” value [4, 17] of the same molecule?
Answer: 152 M/h

Question: And the Cmax [4, 17]?
Answer: 676 (M)/ μg/mL

Question: What about the AUClast [4, 18] of the same molecule?
Answer: 15000 (F) hrs*μg/mL

Question: What about the “Approximate t1/2” value [4, 18] of the same molecule?
Answer: 79.1 (F) hrs

Question: And the Cmax [4, 18]?
Answer: 141 (F) μg/mL

Question: What about the AUClast ([4]; Total antibody, 5 mg/kg, male) of the same molecule?
Answer: 14600 (M)/ hrs*μg/mL

Question: What about the “Approximate t1/2” value ([4]; Total antibody, 5 mg/kg, male) of the same molecule?
Answer: 82.4 M/h

Question: And the Cmax ([4]; Total antibody, 5 mg/kg, male)?
Answer: 134 (M)/ μg/mL

Question: And the AUClast [4, 19]?
Answer: 47300 (F) hrs*μg/mL

Question: And the “Approximate t1/2” value [4, 19]?
Answer: 143 (F) hrs

Question: What about the Cmax [4, 19] of the same molecule?
Answer: 373 (F) μg/mL

Question: And the AUClast ([4]; Total antibody, 15 mg/kg, male)?
Answer: 53800 (M)/ hrs*μg/mL

Question: And the “Approximate t1/2” value ([4]; Total antibody, 15 mg/kg, male)?
Answer: 166 M/h

Question: What about the Cmax ([4]; Total antibody, 15 mg/kg, male) of the same molecule?
Answer: 372 (M)/ μg/mL

Question: What about the AUClast [4, 20] of the same molecule?
Answer: 84500 (F) hrs*μg/mL

Question: And the Cmax [4, 20]?
Answer: 554 (F) μg/mL

Question: And the AUClast ([4]; Total antibody, 25 mg/kg, male)?
Answer: 84900 (M)/ hrs*μg/mL

Question: What about the “Approximate t1/2” value ([4]; Total antibody, 25 mg/kg, male) of the same molecule?
Answer: 159 M/h

Question: What about the Cmax ([4]; Total antibody, 25 mg/kg, male) of the same molecule?
Answer: 586 (M)/ μg/mL

Question: And the cytotoxicity [5]?
Answer: No cytotoxicity was observed

Question: And the cytotoxicity [6]?
Answer: No cytotoxicity was observed

Question: What about the anti-tumor activity [7] of the same molecule?
Answer: dose-dependent anti-tumor activity

Source: patent publication US20240376214A1, “ANTI-C-MET ANTIBODIES AND ANTIBODY-DRUG CONJUGATES” (BYONDIS B.V., priority 2021, published 2024)
